Reference: PubChem BioAssay AID2202238 (Ras Initiative Chemistry Research Team, Frederick National …, 2025)
Among all 2,200 compounds or so, fewer than 10 were called active. Some of the results follow. Where no call is shown, the source marks the result inconclusive.

target: GTPase KRas (Homo sapiens) (UniProt P01116); experiment: Cysteine mutants labelled by reactive fragments (mass read-out) (AID 2202238); parameters: protein at 5 µM with 500 µM competing thiol for 1.5 h; conditions: KRAS G12D cysteine mutants, disulfide tethering, MALDI-TOF labeling; stronger effect = higher value; H27C mutant labeling; fragment at 500 µM
Chain of UniProt P01116 (P01116 whole entry, looked up, the tested form may be a part): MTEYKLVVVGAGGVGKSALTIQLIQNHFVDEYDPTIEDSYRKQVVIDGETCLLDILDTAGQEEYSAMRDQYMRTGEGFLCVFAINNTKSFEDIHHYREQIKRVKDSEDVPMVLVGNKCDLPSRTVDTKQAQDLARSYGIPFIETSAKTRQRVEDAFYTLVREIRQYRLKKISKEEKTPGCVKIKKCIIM

Compound	percent labeling
CC(=O)NC1(c2noc(CCC(=O)NCCS)n2)CCCCCC1	23.8%
Cc1c[nH]c(=O)n1-c1ccc(C(=O)NCCS)cc1	19%
O=C(CCS)N1CCN(c2ccc(F)cc2Cl)CC1	44.1%
CC(=O)Nc1ccc(CNC(=O)CCS)cc1	37.1%
O=C(CCS)N1CC(c2nnc(CO)s2)C1	20.3%
Cn1cnc2ccc(C(=O)NCCS)nc21	47.5%
Cc1cc(C)n2nc(C)c(C(=O)NCCS)c2n1	35.3%
COc1ccccc1Cn1cnc2cc(C(=O)NCCS)ccc21	32.5%
Cc1cc(C)c(C)c(OCCC(=O)NCCS)c1	18.5%
O=C(NCCS)c1c[nH]cc1Cc1ccccc1	14.9%
Cc1cc(NC(=O)CCS)nn1Cc1cccc(C(F)(F)F)c1	29.9%
Cc1c(C(=O)NCCS)oc2ccccc2c1=O	30.7%
O=C(CCS)Nc1ccn(Cc2cn3ccccc3n2)n1	41.6%
O=C(NCCS)c1cccc(C(=O)Nc2ccccc2)c1	27.4%
Cn1nc(NC(=O)CCS)cc1COCCC(F)(F)F	39.7%
O=C(CCS)NC1CCN(C2CCC2)CC1	42.7%
O=C(NCCS)c1cc2n(n1)CCCC2	43.6%
O=C(NCCS)c1cnn(C2CCOCC2)c1	38.3%
CN(C)c1ncc2c(n1)CCN(C(=O)CCS)C2	27.9%
Cc1nn(C)cc1CN(CCO)C(=O)CCS	25%
CC(C)(C(=O)NCCS)c1cccc(Cl)c1F	44%
Cc1ccc(C2CCCN2C(=O)CCS)s1 (stereo unspecified)	28.9%
CCn1cc(NC(=O)CCS)c(C(=O)NCCc2ccccc2)n1	37.1%

Compound	percent labeling
Cc1cc(C(=O)NCCS)sc1-c1ccccc1	27.2%
O=C(CCS)NCc1nc(-c2cccs2)n[nH]1	38.2%
CN(Cc1ccccc1)C(=O)NCCC(=O)NCCS	32.1%
CC(C(=O)NCCS)C1OCCc2sccc21 (stereo unspecified)	37.7%
O=C(NCCS)c1cc(N2CCCC2=O)ccc1F	43.3%
O=C(CCS)NC1CCN(C(=O)CCc2ccccc2)CC1	38.2%
O=C(CCS)Nc1cnn(-c2cnc3ccccc3n2)c1	46.7%
O=C(CCS)N1CCOCC1c1noc(-c2ccccc2)n1 (stereo unspecified)	39.5%
O=C(NCCS)C1CCCCN1C(=O)C1CCCC1 (stereo unspecified)	26.3%
COc1ccc2[nH]c(C)c(C(=O)NCCS)c2c1	36%
Cc1cc2c(cc(C(=O)NCCS)n2CC(F)(F)F)s1	22.9%
O=C(NCCS)C1CCCN1C(=O)Cc1ccc2ccccc2c1 (stereo unspecified)	31.4%
CC(C)(COc1ncccc1Br)NC(=O)CCS	30.7%
O=C(NCCS)[C@@H]1OCCO[C@@H]1C(F)(F)F	38.5%
Cc1sc(=O)n(CCC(=O)NCCS)c1C	24.3%
CN(Cc1ccc(-c2ccc(Br)cc2)o1)C(=O)CCS	20.7%
CCc1ccc(-c2csc(NC(=O)CCS)n2)s1	33.6%
O=C(CN1CCC(c2ccccc2)NC1=O)NCCS (stereo unspecified)	35.4%
Cc1nc2c(C#N)c[nH]n2c(=O)c1CC(=O)NCCS	19.2%
Cn1ccnc1N1CCC(C(=O)NCCS)C1 (stereo unspecified)	10.2%
CN(C)CCN(Cc1ccco1)C(=O)CCS	49%
O=C(CCS)NCc1nnc2n1CCC(C(F)(F)F)C2 (stereo unspecified)	31.6%
O=C(CN1C(=O)COc2cc(Br)ccc21)NCCS	26.6%

Compound	percent labeling
O=C(CCS)N1CCCC(Cn2cnc3ccccc32)C1 (stereo unspecified)	47%
Cn1nnnc1N1CCC(NC(=O)CCS)CC1	33.8%
COc1ccc(-c2nc(CC(=O)NCCS)cs2)cc1OC	36.3%
CCCc1c(NC(=O)CCS)cnn1-c1cc(F)c(OC)cc1F	33.2%
CNC(=O)[C@@H]1Cc2ccccc2CN1C(=O)CCS	32.7%
O=C(CCS)NCCn1ncc(Br)n1	36.4%
O=C(NCCS)c1nn(-c2ccc(F)cc2)ccc1=O	46.3%
O=C(CC1CCC2(CCOCC2)CO1)NCCS (stereo unspecified)	31%
O=C(CCS)Nc1ccc2ccc(O)cc2c1	33.8%
O=C(CCS)NC1(c2nn[nH]n2)CCCC1	20.3%
O=C(NCCS)c1ccc(OCc2ccccc2)cc1	11.7%
Cn1cc(-c2cc(F)ccc2NC(=O)CCS)cn1	37.6%
Cn1nc(C(F)(F)F)nc1CNC(=O)CCS	28.9%
COc1cccc(CNC(=O)CCS)c1OC(F)F	41.6%
O=C(CCS)NCc1nnnn1CC1CC1	32.1%
O=C(NCCS)c1cc(-c2c[nH]c3ccccc23)n[nH]1	20.7%
O=C(CCS)N1CCN(c2ccccc2)C(=O)C1	33.1%
O=C(CCS)N1CCC(c2nc(C3CC3)n[nH]2)CC1	39.8%
CN1CCN(Cc2ccc(CNC(=O)CCS)cc2)CC1	52.2%
O=C(CCS)Nc1ccc(-c2ncc3n2CCCC3)cc1	48.5%
CCCn1ccnc1-c1cccc(NC(=O)CCS)c1	50.2%
O=C(CN1C(=O)C2CCCCC2C1=O)NCCS (stereo unspecified)	31.5%
O=C(CCCOc1ccc2c(c1)OCO2)NCCS	34.7%

Compound	percent labeling
Cn1c(=O)oc2cc(NC(=O)CCS)ccc21	34.5%
CC(C(=O)NCCS)N1C(=O)c2ccccc2C1=O (stereo unspecified)	32.1%
O=C(NCCS)c1ccc2cncc(Br)c2n1	39.9%
O=C(NCCS)c1ccc(F)c2ccsc12	18.7%
O=C(CCS)NCC1(c2ccccc2)CCOCC1	34.3%
O=C(NCCS)c1[nH]c2ccc(Cl)cc2c1Cl	20.9%
COC(=O)c1cc2n(n1)CCCC2NC(=O)CCS (stereo unspecified)	33.4%
O=C(/C=C/c1ccc(O)c(O)c1)NCCS	37%
CN1C[C@@H](C(=O)NCCS)[C@H](c2ccccc2)C1	43%
O=C(NCCS)c1[nH]ccc1-c1c(Cl)cccc1Cl	20.9%
CC(C)C(NC(=O)c1ccc(Cl)cc1)C(=O)NCCS (stereo unspecified)	27.4%
Cc1sc(NC(=O)CCS)nc1-c1ccccc1	41.7%
CC(C)c1cccc(N2CC(C(=O)NCCS)CC2=O)c1 (stereo unspecified)	35.9%
N#Cc1cn(CC(F)(F)F)nc1NC(=O)CCS	39.3%
O=C(CCS)NCCc1cnc(SC2CCCC2)nc1	36.2%
O=C(CCS)NCc1cn2c(n1)CCCC2	35.5%
CC(c1ccccc1)c1cc(C(=O)NCCS)n[nH]1 (stereo unspecified)	33.9%
Cc1nc(C(=O)NCCS)nn1-c1n[nH]c(C(F)(F)F)n1	24%
O=C(CCS)Nc1cccc(NC(=O)c2ccc3c(c2)OCO3)c1	21.9%
O=C(CCS)NC1(c2noc(-c3cccnc3)n2)CCCCCC1	38.7%
O=C(COc1cccc(N2CCCC2=O)c1)NCCS	35.7%
Cn1cc(-c2cccc(C(=O)NCCS)c2)cn1	42%
